# Results: paper PMC4336329 (PLoS ONE, 2015)
# About 2,200 (0.71%) of roughly 310,000 compounds showed an effect of 50% or more. The effect is printed as a negative number. Some of the results follow.
# Target: human ether-à-go-go-related gene (hERG) potassium channel (human, UniProt Q12809)
# Test: primary screen, population patch clamp on CHO cells stably expressing hERG
# human ether-à-go-go-related gene (hERG) potassium channel, sequence (Q12809 whole entry, looked up): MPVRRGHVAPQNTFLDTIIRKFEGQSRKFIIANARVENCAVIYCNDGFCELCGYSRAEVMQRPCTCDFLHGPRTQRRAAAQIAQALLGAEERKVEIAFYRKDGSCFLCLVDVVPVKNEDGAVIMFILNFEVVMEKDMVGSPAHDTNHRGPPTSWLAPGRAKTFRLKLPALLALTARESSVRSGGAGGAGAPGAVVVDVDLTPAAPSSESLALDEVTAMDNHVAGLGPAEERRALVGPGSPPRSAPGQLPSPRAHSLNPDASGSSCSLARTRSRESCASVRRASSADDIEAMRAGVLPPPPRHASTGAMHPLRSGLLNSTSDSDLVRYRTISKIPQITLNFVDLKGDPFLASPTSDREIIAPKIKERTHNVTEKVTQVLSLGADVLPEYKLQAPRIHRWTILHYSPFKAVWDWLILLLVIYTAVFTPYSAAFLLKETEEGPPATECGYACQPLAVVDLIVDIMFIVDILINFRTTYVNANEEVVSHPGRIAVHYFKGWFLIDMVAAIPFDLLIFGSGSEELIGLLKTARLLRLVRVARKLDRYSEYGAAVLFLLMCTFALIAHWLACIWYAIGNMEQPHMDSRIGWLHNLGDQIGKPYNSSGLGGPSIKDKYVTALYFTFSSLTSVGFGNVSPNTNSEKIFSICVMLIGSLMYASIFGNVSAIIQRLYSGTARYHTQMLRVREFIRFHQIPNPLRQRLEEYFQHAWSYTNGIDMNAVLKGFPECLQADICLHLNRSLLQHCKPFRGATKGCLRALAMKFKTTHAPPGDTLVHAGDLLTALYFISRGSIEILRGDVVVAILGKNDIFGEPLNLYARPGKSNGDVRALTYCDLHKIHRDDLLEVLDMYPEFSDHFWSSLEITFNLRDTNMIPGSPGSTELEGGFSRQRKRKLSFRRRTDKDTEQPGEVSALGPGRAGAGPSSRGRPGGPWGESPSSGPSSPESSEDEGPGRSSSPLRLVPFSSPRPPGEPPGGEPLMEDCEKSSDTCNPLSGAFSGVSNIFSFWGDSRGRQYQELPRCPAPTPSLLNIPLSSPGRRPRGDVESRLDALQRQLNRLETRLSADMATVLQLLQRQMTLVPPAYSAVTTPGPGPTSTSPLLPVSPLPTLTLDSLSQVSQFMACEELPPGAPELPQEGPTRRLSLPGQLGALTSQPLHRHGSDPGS
row,SMILES,"hERG current change (%, negative = inhibition) at 1uM"
1,CCOc1ccccc1NC(=O)Cn1cnc2c(nnn2-c2cccc(OC)c2)c1=O,12.2%
2,COc1cccc(-c2nc(CS(=O)(=O)CC(=O)NCCCN3CC(C)CC(C)C3)c(C)o2)c1 (centres unmarked),-5.41%
3,COc1ccc(C(=O)NCCN2CCN(C(=O)c3ccc(OC)cc3)CC2)cc1,-22.1%
4,COc1ccc(C(=O)NCCS(=O)(=O)N(C)Cc2ccccc2)cc1,3.51%
5,Cc1cccc(CC2CC(=O)N(c3ncccn3)C2=O)c1 (centres unmarked),13.6%
6,Cc1cc(OC(C)C(=O)NCCN2CCOCC2)c2c(C)c(C)c(=O)oc2c1 (centres unmarked),14.2%
7,O=C(CCNS(=O)(=O)c1ccc(Cl)cc1)N1CCCC1,16.9%
8,CCn1nc(NC(=O)c2ccccn2)c2cc3cccc(C)c3nc21,7.68%
9,CNC(=O)CN1C(=O)c2cccc3cccc1c23,14.5%
10,Cc1sc2nc(CN3CCC(C)CC3)nc(Cl)c2c1C,4.96%
11,Cc1cccc(CC(=O)N2CCN=C2SCc2ccc([N+](=O)[O-])cc2)c1,10.5%
12,Cc1cc(NC(=O)CSc2nc3c(c(=O)n2-c2ccccc2)SC(C)C3)no1 (centres unmarked),-8.78%
13,COc1ccc(CN2CCN(Cc3ccccc3C(F)(F)F)CC2)c(OC)c1.O=C(O)C(=O)O,-39.5%
14,CCCC1(c2ccccc2)NC(=O)N(CC(=O)Nc2cc(S(=O)(=O)N3CCOCC3)ccc2Cl)C1=O (centres unmarked),12.8%
15,CN1C(=O)/C(=N/OC(=O)c2ccccc2)c2ccccc21,-4.57%
16,CC(C)n1c(SC2C(=O)CC(C)(C)CC2=O)nc2c1c(=O)n(C)c(=O)n2C,10.2%
17,CCCCN(CC)Cc1ccc(CNC(=S)Nc2ccc(C)cc2Cl)o1,7.32%
18,COc1ccc(NC(=O)CN2C(=O)CSc3ncccc32)cc1,-0.368%
19,Cc1nn(-c2cc(C(F)(F)F)ccc2Cl)c2nc(C(Cl)(Cl)Cl)[nH]c(=O)c12,6.45%
20,O=C(NCCCn1ccnc1)c1cc(-c2cccc(O)c2)on1,10.6%
21,CCCc1cc(C(=O)Nc2cccc(C(C)=O)c2)no1,12.3%
22,CC1=CC(c2ccccc2)n2nc(N)nc2N1 (centres unmarked),-4.83%
23,COc1cccc(C(c2c(N)[nH]c(=S)[nH]c2=O)c2c(N)[nH]c(=S)[nH]c2=O)c1,13%

row,SMILES,"hERG current change (%, negative = inhibition) at 1uM"
1,CCOC(=O)c1nc2ccccc2c(=O)[nH]1,20.6%
2,O=C(Nc1ccccc1N1CCCC1)C1CCN(C(=O)c2ccc(Cl)cc2)CC1,-15.9%
3,CN(CC(=O)N1CCN(c2ccccn2)CC1)S(=O)(=O)c1ccc(Br)cc1,-13.3%
4,CC(=O)c1ccc(S(=O)(=O)Nc2ccc(C(=O)NCC(c3ccccc3)N(C)C)cc2)cc1 (centres unmarked),9.2%
5,O=C(CN1CCN(C(=O)C2CCCO2)CC1)Nc1ccc(Br)cc1 (centres unmarked),-16.6%
6,COC(=O)c1cc2n(n1)CCN(Cc1ccc(OC)cc1)C2=O,3.5%
7,CC1CCC(NC(=O)C2CCC(CNS(=O)(=O)c3cccc4nsnc34)CC2)CC1 (centres unmarked),4.44%
8,O=C(Nc1ccc(C(=O)N2CCCc3ccccc32)cc1)c1cccs1,13.4%
9,CC(C)CC1C(C#N)=C(N)OC2=C1C(=O)CC(c1ccccc1)C2 (centres unmarked),10.6%
10,CCCCNC(=O)/C(C#N)=C/c1ccc(F)cc1F,6.27%
11,O=C(CCCC(=O)OCC(=O)c1cccs1)Nc1ccc(F)cc1,7.74%
12,O=C(/C=C/c1ccc(Cl)cc1)N(Cc1ccccc1)C1CCS(=O)(=O)C1 (centres unmarked),-16.6%
13,COCCN(C(=O)COC(=O)CCc1ccc(OC)cc1)c1c(N)n(Cc2ccccc2)c(=O)[nH]c1=O,13.3%
14,CCc1c(C(C)=O)oc2ccc3c(C)cc(=O)oc3c12,3.79%
15,Cc1ccc(/C=c2\sc3nc(-c4ccccc4Br)nn3c2=O)o1,-3.31%
16,COc1ccccc1NC(=O)COc1ccccc1C(=O)c1cnn(-c2ccccc2)c1,-9.37%
17,Cc1cccc(C)c1Nc1nnc(SCc2nc3ccccc3c(=O)[nH]2)s1,1.2%
18,CCOC(CNC(=O)c1ccc2c(c1)nc(C)n2-c1cccc(F)c1)OCC,5.21%
19,Cc1ccc(NC(=O)N(Cc2ccc3c(c2)OCO3)Cc2cc3cc4c(cc3[nH]c2=O)OCCO4)cc1,18.9%
20,Nc1ccc(O)c2c(=O)cc(-c3ccccc3Cl)oc12,6.31%
21,O=C(O)CCN1C(=O)/C(=C\c2ccncc2)SC1=S,10.5%
22,COC(=O)c1ccc(C(=O)OC)c(NC(=O)CN(C)Cc2ccccc2)c1,5.67%
23,CCCCNC(=O)Nc1ccc(C(O)(C(=O)OCC)C(F)(F)F)cc1 (centres unmarked),6.17%

row,SMILES,"hERG current change (%, negative = inhibition) at 1uM"
1,COc1ccc(COC(=O)C2=C(C)NC(=O)NC2c2cc(Br)c(O)c(OC)c2)cc1 (centres unmarked),7.22%
2,Cc1ccccc1CSc1[nH]c(=O)ncc1C,16.1%
3,O=C(NCc1ccc2c(c1)OCO2)C1CC(c2ccc(Cl)cc2)=NO1 (centres unmarked),7.13%
4,O=C(CCCl)Nc1nc2c(s1)CCc1ccccc1-2,9.38%
5,COc1ccc(/C=N/NC(=O)c2cc(-c3ccc(C)cc3C)nc3ccccc23)cc1COC(C)=O,18.7%
6,Cc1nnc(NC(=O)CSc2nc(C3CCCCC3)nc3ccccc23)s1,6.92%
7,COc1ccc(CC(NC(C)=O)C(=O)NC2CCN(C(=O)c3ccncc3)CC2)cc1OC (centres unmarked),8.46%
8,Cc1cc(OCC(=O)NC(C)C)cc(C)c1Br,6.7%
9,COc1c(CC=C(C)C)cc(C2CC(=O)c3c(O)cc(O)cc3O2)cc1CC=C(C)C (centres unmarked),2.68%
10,Cc1cc(C(=O)COc2ccc(-c3nnco3)cc2)c(C)n1Cc1ccccc1,4.45%
11,COc1cc(/C=C2\SC(=S)N(C(C(=O)O)c3ccccc3)C2=O)ccc1O (centres unmarked),0.123%
12,Cc1ccc(NC2=NC3(CCCCC3)N=C(N)N2)c(C)c1,-3.95%
13,Cc1cc(=O)[nH]c(Nc2ccc(Cl)cc2)n1,22.6%
14,Cc1ccc(F)cc1NC(=O)C1C2CCC(O2)C1C(=O)O (centres unmarked),13.3%
15,Cc1ccc(C)c(-n2c(SCC(=O)O)nc3sc4c(c3c2=O)CCCC4)c1,3.82%
16,O=C1CN(C(=O)COc2ccccc2)c2ccccc2N1,19.2%
17,COC(=O)C1=CN(C2CCCCC2)C=C(C(=O)OC)C1c1ccc2c(c1)OCO2,7.32%
18,Cc1ccc(CNC(=O)CNC(=S)N(Cc2ccccc2)Cc2cccnc2)cc1,8.32%
19,Cc1cccc(NC2=CC(=O)OC(C)C2)c1 (centres unmarked),8.35%
20,COC(=O)c1ccc(-n2ccnc2)cc1,13.6%
21,O=[N+]([O-])c1ccc(N2CCN(c3ccc(O)cc3)CC2)cn1,-11.6%
22,COc1cccc(C(=O)Nc2ccc3c(c2)C(=O)N(CCC(=O)O)C3=O)c1,8.26%
23,COC(=O)c1ccc(N2C(=O)c3ccc(OC)c(OC)c3C2=O)cc1,1.5%

row,SMILES,"hERG current change (%, negative = inhibition) at 1uM"
1,O=[N+]([O-])c1ccc(S(=O)(=O)Nc2nnc(C3CCCCC3)s2)cc1,10.8%
2,CC(C)n1c(COc2ccccc2)nc2ccccc21,13.7%
3,CC(Sc1nc2ccccc2[nH]1)C(=O)O (centres unmarked),10.8%
4,COC(=O)c1cc(S(=O)(=O)NCc2ccccc2OC)cn1C,10.6%
5,COC(=O)c1ccc(C(=O)OC)c(NC2=NS(=O)(=O)c3ccccc32)c1,5.02%
6,Cc1ccc(S(=O)(=O)c2cc(C)cc(S(=O)(=O)Nc3ccc(C(=O)O)cc3)c2C)cc1,9.81%
7,O=C(COC(=O)c1ccncc1)NCCCc1ccccc1,10.9%
8,CCCCOC(=O)N1CCOCCOCCOCCOCC1,-6.34%
9,O=C(NNC(=O)c1ccccc1O)c1ccc(Br)cc1,18.5%
10,O=C(COC(=O)c1c(Cl)cccc1Cl)Nc1ccccc1Br,12.7%
11,CCN1CCN(c2ccc(S(=O)(=O)N3CCOCC3)cc2NC(=O)CCOc2ccccc2)CC1,-7.31%
12,CCCCCCOC(=O)C1=C(C)NC(=O)NC1c1ccc(O)cc1 (centres unmarked),2.67%
13,O=C(Nc1ccnn1C1CCN(Cc2cccnc2)CC1)c1ccccc1Cl,-11.5%
14,C=CCn1c(SCc2ccc(C#N)cc2)nnc1-c1cccc(Cl)c1,-46.8%
15,O=C(O)CCCNC(=O)Nc1ccccc1,18.2%
16,CC(C)CCN(C(=O)c1ccncc1)c1c(N)n(Cc2ccccc2)c(=O)[nH]c1=O,9.05%
17,O=C(c1ccc(O)c(Cl)c1)N1CCN(S(=O)(=O)c2ccccc2)CC1,9.96%
18,Cn1cccc1Cc1nnc(SCC(=O)N2CCc3ccccc32)n1-c1ccc(F)cc1,7.18%
19,C=CCOC(=O)/C(=C\C=C\c1ccccc1)NC(=O)c1ccccc1,1.06%
20,CCOc1ccc(NS(=O)(=O)c2ccc(C(=O)NCC3(N(C)C)CCCCC3)cc2)cc1,6.85%
